Among the data in the supplement of paper PMC10670038 are relative cell viability values, retold here.

The structures appear in SMILES notation. Structures can show the parent of a compound that is named as a salt. ± gives the standard deviation of the averaged measurements. Whole data set: some 2,000 compounds, median “relative cell viability vs DMSO, compound alone” near 1.1, cut for the lowest 2% near 0.29. The list shows a part of the results.

The test deals with TE10. In words: relative cell viability vs DMSO, compound alone (fraction); TE10 is an esophageal squamous carcinoma line; higher = less cytotoxic. The following applies: 2 µM; 48 h. The protocol:
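TE10 ESCC cells (1,000/well, 384-well plates) were treated with Selleck bioactive library compounds at 2 uM alone for 48 h. Viability was read by CellTiter-Glo and expressed relative to DMSO wells. Two technical replicates (A, B).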
In turn, `CC1(C)CCC(CN2CCN(c3ccc(C(=O)NS(=O)(=O)c4ccc(NCC5CCOCC5)c([N+](=O)[O-])c4)c(Oc4cnc5[nH]ccc5c4)c3)CC2)=C(c2ccc(Cl)cc2)C1` showed a relative cell viability of 1.09 ± 0.12.
The compound `CC(C)(C)n1nc(-c2ccc(Cl)cc2)c2c(N)ncnc21` yielded a relative cell viability of 0.729 ± 0.1.
Turning to `CCCCCCCCCCC[C@@H](C[C@@H]1OC(=O)[C@H]1CCCCCC)OC(=O)[C@H](CC(C)C)NC=O` [Orlistat], the relative cell viability was 0.937 ± 0.048.
Regarding `CS(=O)(=O)c1cccc(CNc2nc(Nc3ccc4c(c3)CCC(=O)N4)ncc2C(F)(F)F)c1`, the relative cell viability was determined as 0.958 ± 0.065.
The compound `COc1cc2ncc(-c3ccccc3)nc2cc1OC` [Tyrphostin AG 1296] registered a relative cell viability of 0.999 ± 0.063.
`COC1C(O)CC(=O)OC(C)CC=CC=CC(OC2CCC(N(C)C)C(C)O2)C(C)CC(CC=O)C1OC1OC(C)C(OC2CC(C)(O)C(O)C(C)O2)C(N(C)C)C1O` (stereo unspecified) [Spiramycin] returned a relative cell viability of 1.11 ± 0.04.
Turning to `CCC[C@H](Nc1nc(-c2ccc(NC(=O)NCC)c(OC)c2)ncc1C)c1cccnc1` [CYT997 (Lexibulin)], the relative cell viability turned out to be 0.792 ± 0.025.
On to `O=NO` [Sodium Nitrite], for which the relative cell viability was 1.17 ± 0.056.
Compound `COc1ccc(C(=O)Nc2sc3c(c2C(N)=O)CCCC3)cc1OC` gave a relative cell viability of 1.06 ± 0.068.
As to `O=C(O)CCC(=O)Nc1ccc(Br)cn1` [Bikinin], the relative cell viability is 1.05 ± 0.031.
The result for `CC(C)(Oc1ccc(Cl)cc1)C(=O)O` [Clofibric Acid] reads 0.9951 ± 0.0068; that for `COc1cc(Nc2ncc(F)c(Nc3ccc4c(n3)NC(=O)C(C)(C)O4)n2)cc(OC)c1OC` [R406 (free base)], 0.844 ± 0.051.
The result for `COc1cc(Nc2ncc(F)c(Nc3ccc4c(n3)NC(=O)C(C)(C)O4)n2)cc(OC)c1OC` reads 0.96 ± 0.015; that for `CS(=O)(=O)CCNCc1ccc(-c2ccc3ncnc(Nc4ccc(OCc5cccc(F)c5)c(Cl)c4)c3c2)o1`, 0.998 ± 0.17.
On to `CS(=O)(=O)CCNCc1ccc(-c2ccc3ncnc(Nc4ccc(OCc5cccc(F)c5)c(Cl)c4)c3c2)o1` [Lapatinib], for which the relative cell viability is 1.08 ± 0.019.
The compound `C=CC(=O)Nc1cccc(Nc2nc(Nc3ccc(N4CCN(C(C)=O)CC4)cc3OC)ncc2C(F)(F)F)c1` showed a relative cell viability of 0.986 ± 0.092.
`Nc1c(Br)cc(Br)cc1CN[C@H]1CC[C@H](O)CC1` [Ambroxol HCl] had a relative cell viability of 1.05 ± 0.029.
Compound `Cn1ccnc1S` [Methimazole] registered a relative cell viability of 1.075 ± 0.0027.
Turning to `CC(C)(Sc1cc(C(C)(C)C)c(O)c(C(C)(C)C)c1)Sc1cc(C(C)(C)C)c(O)c(C(C)(C)C)c1` [Probucol], the relative cell viability was 1.02 ± 0.0073.
The result for `CN1CCC(=C2c3ccccc3CC(=O)c3sccc32)CC1` [Ketotifen Fumarate] reads 1.07 ± 0.012.
The result for `COc1ccccc1N1CCN(CC(O)COc2cccc3ccccc23)CC1` (stereo unspecified) [Naftopidil DiHCl] reads 1.13 ± 0.12; that for `COc1ccccc1N1CCN(CC(O)COc2cccc3ccccc23)CC1` (stereo unspecified) [Naftopidil], 0.9388 ± 0.0088; that for `O=C(O)CC[C@H]1CC[C@@](c2cc(F)ccc2F)(S(=O)(=O)c2ccc(Cl)cc2)CC1`, 0.965 ± 0.023.
For the compound `N#CC(c1ccc(Cl)cc1)c1c(Cl)cc(-n2ncc(=O)[nH]c2=O)cc1Cl` (stereo unspecified) [Diclazuril], the relative cell viability turned out to be 0.869 ± 0.039.
As for `O=c1ccc2ccc(O)c(O)c2o1` [Daphnetin], the relative cell viability worked out at 1.1 ± 0.02.
In the case of `COc1cc(OC)c(C(=O)CCCN2CCCC2)c(OC)c1` [Buflomedil HCl], the relative cell viability amounted to 1.124 ± 0.0052.
For `COc1ccc(CCNCc2ccc(OCc3ccc(Cl)nc3)c(OC)c2)cc1OC` the value was 1.083 ± 0.0095; for `CC(C)(C)C(=O)OCOP(=O)(COCCn1cnc2c(N)ncnc21)OCOC(=O)C(C)(C)C` [Adefovir Dipivoxil], 0.795 ± 0.078; for `CNCC[C@H](Oc1cccc2ccccc12)c1cccs1` [Duloxetine HCl], 1.11 ± 0.054.
The result for `C[C@@H](Oc1cc(-n2cnc3ccc(CN4CCN(C)CC4)cc32)sc1C(N)=O)c1ccccc1C(F)(F)F` reads 0.877 ± 0.049; that for `COc1ccccc1-c1cc(Nc2cccc(CS(N)(=O)=O)c2)ncn1`, 1.04 ± 0.014; that for `CC1(COc2ccc3c(c2)ncn3-c2ccc3cccc(N4CCC(N)CC4)c3n2)COC1`, 1.1 ± 0.033.
`N#CC(=Cc1ccc(O)c(O)c1)C(=O)NCc1ccccc1` [AG-490 (Tyrphostin B42)] displayed a relative cell viability of 1.196 ± 0.001.
Compound `COc1cc(Cc2cnc(N)nc2N)cc(OC)c1OC` [Trimethoprim] came in with a relative cell viability of 1.07 ± 0.067.
With `COc1cc2c(cc1OC)CN(CCc1ccc(NC(=O)c3cc(OC)c(OC)cc3NC(=O)c3cnc4ccccc4c3)cc1)CC2` [Tariquidar], the relative cell viability was found to be 1.14 ± 0.047.
`C=CC(=O)N1CC(=Cc2ccc([N+](=O)[O-])cc2)C(=O)C(=Cc2ccc([N+](=O)[O-])cc2)C1` showed a relative cell viability of 0.0554 ± 0.0028.
The compound `O=C(Nc1ccccc1)c1ccccc1O` [Salicylanilide] had a relative cell viability of 1.07 ± 0.059.
Take `CC(=O)c1cc([N+](=O)[O-])c(Sc2cccc(Cl)c2Cl)s1`: the relative cell viability was 1.039 ± 0.0072.
For `Cn1c(=O)c2[nH]cnc2n(C)c1=O` [Aminophylline] the value was 0.839 ± 0.017; for `CS(=O)(=O)c1ccc(C2=C(c3ccccc3)C(=O)OC2)cc1` [Rofecoxib], 1.15 ± 0.038.
`Cc1[nH]c(=O)c(C#N)cc1-c1ccncc1` [Milrinone]: the relative cell viability is 1.11 ± 0.034.
For `CC(C)[C@H](CO)Nc1nc(Nc2cccc(Cl)c2)c2ncn(C(C)C)c2n1` [Purvalanol A] the value was 1.01 ± 0.056.
Compound `CN(C)CCC=C1c2ccccc2CCc2ccccc21` [Amitriptyline HCl] registered a relative cell viability of 1.022 ± 0.0078.
`Cc1ccnc2c1NC(=O)c1cccnc1N2C1CC1` [Nevirapine] gave a relative cell viability of 1.137 ± 0.0096.
In turn, `N=C(N)N` [Guanidine HCl] registered a relative cell viability of 1.12 ± 0.073.
In turn, `Cc1c(C(N)=O)cc([N+](=O)[O-])cc1[N+](=O)[O-]` [Dinitolmide] showed a relative cell viability of 1.0978 ± 0.00018.
For the compound `CCc1nc(-c2cccc(C)c2)c(-c2ccnc(NC(=O)c3ccccc3)c2)s1`, the relative cell viability turned out to be 1.0779 ± 0.0008.
`Cc1cccc(C)c1NC(=O)C1CCCCN1C` (stereo unspecified) [Mepivacaine HCl] returned a relative cell viability of 1.15 ± 0.032.
The compound `Cc1ncc([N+](=O)[O-])n1CC(O)CCl` (stereo unspecified) [Ornidazole] gave a relative cell viability of 0.985 ± 0.1.
Compound `CN1C(C(=O)Nc2ccccn2)=C(O)c2sccc2S1(=O)=O` [Tenoxicam] had a relative cell viability of 0.957 ± 0.016.
The compound `N#Cc1ccc2[nH]cc(CCCCN3CCN(c4ccc5oc(C(N)=O)cc5c4)CC3)c2c1` [Vilazodone HCl] displayed a relative cell viability of 1.23 ± 0.047.
`COc1cc(C(=O)NS(=O)(=O)c2ccccc2C)ccc1Cc1cn(C)c2ccc(NC(=O)OC3CCCC3)cc12` [Zafirlukast] showed a relative cell viability of 1.03 ± 0.033.
Compound `CN[C@H]1CN(c2ccc3c(=O)c(C(=O)O)cn(-c4nccs4)c3n2)C[C@@H]1OC` [Voreloxin (SNS-595)] gave a relative cell viability of 0.88 ± 0.017.
The compound `CC1=C(C(=O)OC(C)C)C(c2cccc([N+](=O)[O-])c2)C(C(=O)OC2CN(C(c3ccccc3)c3ccccc3)C2)=C(N)N1` (stereo unspecified) [Azelnidipine] displayed a relative cell viability of 1.06 ± 0.012.
Compound `Cc1cc(C2CCCCC2)n(O)c(=O)c1` [Ciclopirox ethanolamine] gave a relative cell viability of 0.785 ± 0.02.
Consider `Cc1cc(C2CCCCC2)n(O)c(=O)c1` [Ciclopirox], for which the relative cell viability stood at 0.775 ± 0.0096.
Turning to `CCc1cncnc1N1CCN(Cc2nc3ccc(C(F)(F)F)cc3[nH]2)CC1`, the relative cell viability amounted to 1.01 ± 0.013.
The compound `O=C(O)c1cc(=O)c2ccccc2o1` [Chromocarb] yielded a relative cell viability of 1.01 ± 0.033.
Take `CCOc1cc([C@@H](CS(C)(=O)=O)N2C(=O)c3cccc(NC(C)=O)c3C2=O)ccc1OC`: the relative cell viability stood at 0.887 ± 0.18.
For `CCOC(=O)[C@H](CCc1ccccc1)N[C@@H](C)C(=O)N1[C@H](C(=O)O)C[C@@H]2CCC[C@@H]21` [Ramipril] the value was 1.02 ± 0.071; for `NC(=O)c1ncn([C@@H]2O[C@H](CO)[C@@H](O)[C@H]2O)n1` [Ribavirin], 1.165 ± 0.011; for `Cc1ccc(S(=O)(=O)n2c(N)nc3ccccc32)cc1` [ML130 (Nodinitib-1)], 0.949 ± 0.053.
For `NCC(=O)Nc1ccc(-n2nc(C(F)(F)F)cc2-c2ccc3c(ccc4ccccc43)c2)cc1`, the relative cell viability was 0.844 ± 0.057.
`COc1ccc(-c2nc3cc(C4=NNC(=O)CC4C)ccc3[nH]2)cc1` (stereo unspecified) [Pimobendan]: the relative cell viability was found to be 0.876 ± 0.019.
The result for `O=c1c(O)c(-c2ccc(O)c(O)c2)oc2cc(O)ccc12` [Fisetin] reads 1 ± 0.033; that for `COc1cc2ncnc(Oc3cccc(NC(=O)Nc4cc(C(C)(C)C(F)(F)F)on4)c3)c2cc1OC`, 1.07 ± 0.013; that for `COc1ccc(-c2cnc3c(-c4cccc5ncccc45)cnn3c2)cc1`, 1.171 ± 0.0012.
In turn, `NS(=O)(=O)c1cc2c(cc1Cl)N=CNS2(=O)=O` [Chlorothiazide] came in with a relative cell viability of 1.01 ± 0.015.
In turn, `CC[C@H]1OC(=O)[C@H](C)[C@@H](O[C@H]2C[C@@](C)(OC)[C@@H](O)[C@H](C)O2)[C@H](C)[C@@H](O[C@@H]2O[C@H](C)C[C@H](N(C)C)[C@H]2O)[C@](C)(OC)C[C@@H](C)C(=O)[C@H](C)[C@@H](O)[C@]1(C)O` [Clarithromycin] gave a relative cell viability of 1.06 ± 0.047.
The compound `O=[N+]([O-])c1ccc2c(c1)S(=O)(=O)C=C2` [Stattic] had a relative cell viability of 0.43 ± 0.0062.
Compound `CCCCCCCCC/C(=C\C1=C(C)C(=O)C(OC)=C(OC)C1=O)C(=O)O` returned a relative cell viability of 1.06 ± 0.033.
`CN(C)CC[C@H](CSc1ccccc1)Nc1ccc(S(=O)(=O)NC(=O)c2ccc(N3CCN(Cc4ccccc4-c4ccc(Cl)cc4)CC3)cc2)cc1[N+](=O)[O-]`: the relative cell viability amounted to 0.73 ± 0.026.
For `C[C@H]1COC2=C1C(=O)C(=O)c1c2ccc2c1CCCC2(C)C` [Cryptotanshinone] the value was 0.747 ± 0.008.
On to `NC(=O)Cc1cccc(C(=O)c2ccccc2)c1N` [Nepafenac], for which the relative cell viability amounted to 1.2255 ± 0.00018.
`CC(C)C[C@@H]1NC(=O)[C@@H](C(C)C)NC(=O)[C@@H]2CCCN2C(=O)[C@@H](CC(=O)O)NC(=O)[C@@H](Cc2c[nH]c3ccccc23)NC1=O`: the relative cell viability is 1.093 ± 0.0096.
In the case of `CN(C)C(=O)COC(=O)Cc1ccc(OC(=O)c2ccc(NC(=N)N)cc2)cc1` [Camostat Mesilate], the relative cell viability was found to be 1.05 ± 0.023.
In turn, `N=C(N)NC(=O)c1nc(Cl)c(N)nc1N` [Amiloride HCl] showed a relative cell viability of 1.05 ± 0.021.
Regarding `N=C(N)NC(=O)c1nc(Cl)c(N)nc1N` [Amiloride hydrochloride dihydrate], the relative cell viability worked out at 1.15 ± 0.064.
For `Nc1ccccc1NC(=O)c1ccc(CNC(=O)OCc2cccnc2)cc1` [Entinostat (MS-275)] the value was 0.71 ± 0.038; for `CCCCOc1c(C(=O)c2c(F)cc(C)cc2F)c[nH]c2nncc1-2`, 0.904 ± 0.014; for `CCC(=O)Nc1cccc(Oc2nc(Nc3ccc(N4CCN(C)CC4)cc3OC)ncc2Cl)c1`, 1.16 ± 0.059.
